Experimental data from article PMC4336329 (PLoS ONE, 2015).
Screen size: about 310,000 compounds; about 14,000 (4.5%) showed an effect of 50% or more. Effects have a minus sign here. This is one part of the list.

target: human ether-à-go-go-related gene (hERG) potassium channel (human, UniProt Q12809); assay: primary screen, population patch clamp on CHO cells stably expressing hERG
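Further: peak tail current of the secondary pulse compared with the same well before compound.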

human ether-à-go-go-related gene (hERG) potassium channel, sequence (Q12809 whole entry, looked up): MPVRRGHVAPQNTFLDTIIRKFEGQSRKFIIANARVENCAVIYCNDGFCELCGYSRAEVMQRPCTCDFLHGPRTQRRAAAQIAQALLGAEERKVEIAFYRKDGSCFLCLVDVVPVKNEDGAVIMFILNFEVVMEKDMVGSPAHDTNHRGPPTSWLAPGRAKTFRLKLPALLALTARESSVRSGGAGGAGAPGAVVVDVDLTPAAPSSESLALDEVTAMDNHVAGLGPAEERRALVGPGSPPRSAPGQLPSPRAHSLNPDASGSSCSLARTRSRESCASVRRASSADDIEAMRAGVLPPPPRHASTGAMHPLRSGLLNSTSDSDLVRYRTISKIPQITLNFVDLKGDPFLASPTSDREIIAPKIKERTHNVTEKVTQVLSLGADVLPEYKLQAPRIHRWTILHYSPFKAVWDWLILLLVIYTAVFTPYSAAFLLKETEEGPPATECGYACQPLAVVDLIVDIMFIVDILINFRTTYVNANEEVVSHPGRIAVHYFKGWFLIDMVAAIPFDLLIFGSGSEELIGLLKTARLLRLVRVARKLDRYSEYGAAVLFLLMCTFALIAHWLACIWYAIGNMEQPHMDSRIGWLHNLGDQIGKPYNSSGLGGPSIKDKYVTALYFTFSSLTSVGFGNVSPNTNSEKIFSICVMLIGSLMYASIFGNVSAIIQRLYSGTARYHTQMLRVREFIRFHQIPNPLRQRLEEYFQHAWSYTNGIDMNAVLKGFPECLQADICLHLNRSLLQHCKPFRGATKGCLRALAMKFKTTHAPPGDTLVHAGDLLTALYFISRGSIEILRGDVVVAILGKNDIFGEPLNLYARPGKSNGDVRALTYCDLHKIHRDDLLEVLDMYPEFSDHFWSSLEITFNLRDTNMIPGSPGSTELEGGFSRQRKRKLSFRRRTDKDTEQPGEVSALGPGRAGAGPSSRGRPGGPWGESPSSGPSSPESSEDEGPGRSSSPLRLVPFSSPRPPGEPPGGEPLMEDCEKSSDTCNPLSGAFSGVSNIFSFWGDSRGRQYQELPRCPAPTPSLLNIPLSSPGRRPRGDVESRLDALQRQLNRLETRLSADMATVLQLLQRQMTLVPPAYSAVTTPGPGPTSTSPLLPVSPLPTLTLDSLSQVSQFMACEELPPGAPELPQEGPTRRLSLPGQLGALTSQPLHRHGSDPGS

SMILES | hERG current change (%, negative = inhibition) at 10uM [%]
CCCc1cc(C(=O)NCCc2ccc(OC)c(OC)c2)no1 | -18.4
CCOC(=O)c1sc(NC(=O)c2ccncc2)c(C#N)c1C | 22.8
O=C(COc1ncnc2cc(Cl)ccc12)c1ccccc1 | 12.3
Cc1cc(=O)[nH]c2nnc(-c3ccc(Cl)cc3)n12 | 15.1
CCOc1cc(CN2CCC(n3nccc3NC(=O)C3CC3)CC2)ccc1O | -22
Cc1nn(C(=O)c2ccco2)c(C)c1Sc1ccc(Cl)cc1 | 11.9
COCc1ccc(CN2CCC(n3nccc3NC(=O)CCOc3ccccc3)CC2)o1 | -0.748
Cc1cc(C)cc(N(CC(=O)NCc2ccco2)C(=O)c2snc(C(N)=O)c2N)c1 | 4.92
CC[C@H](C)[C@H](NC(=O)CNC(=O)COc1cc2c(c3oc(=O)cc(C)c13)CCC(C)(C)O2)C(=O)O | 11.1
COc1ccc(NC(=O)CN(C)C(=O)C2CC(=O)N(c3cccc4ccccc34)C2)cc1 (stereo not shown) | 1.33
O=C(CCCCCN1C(=O)CCC1=O)Nc1ccc2c(c1)OCCO2 | 8.47
CCOc1cc2c3c(c1)C(C)CC(C)(C)N3C(=O)C2=O (stereo not shown) | -6.41
CCN1C(=O)[C@H]2[C@@H](c3ccc(C)cc3)N3C(=O)N(c4ccccc4)C(=O)[C@@]3(CC)[C@H]2C1=O | 3.81
O=C(O)C(=O)O.c1cc(CN2CCN(C3CCCCCC3)CC2)ccn1 | -35.7
CC1(C)CC2(CCO1)OC(=O)CC2C(=O)Nc1ccc(Br)cc1 (stereo not shown) | -11.3
CCc1ccc(C2=CC(c3cc(Br)ccc3F)n3ncnc3N2)cc1 (stereo not shown) | 8.07
CCOc1ccc(C(C)=O)cc1COC(=O)C1=COCCO1 | -8.39
Cc1ccc(-c2cnc(NC(=O)CCC(=O)N3CCCCC3)n2C)cc1 | -6.45
O=C(NCc1nc2ccccc2[nH]1)C1=C[C@@H](c2ccccc2)C[C@@H](OCc2ccc(CO)cc2)O1 | -64.9
CCCOc1ccccc1C(=O)Nc1ccc(S(=O)(=O)N2CCN(C)CC2)cc1 | -10.1
O=C(CC(SCCO)c1ccc2c(c1)OCO2)c1ccco1 (stereo not shown) | 8.89
CCOC(=O)Cc1csc(NC(=O)Cc2cccs2)n1 | 6.28
Cc1cccc(NC(=O)NCCc2c[nH]c3ccccc23)c1 | -9.68
CSc1ncc(Cl)c(C(=O)Nc2cccc(Cl)c2)n1 | -8.43
CC1CCCCC1NC(=O)CN1CCC(O)(c2ccc3c(c2)OCO3)CC1 (stereo not shown) | -6.59
Cc1cc([N+](=O)[O-])c(-c2ccc(/C=N/n3cnnc3)o2)cc1Cl | -11.4
COc1cc(C(=O)OCCCN(C)C)cc(OC)c1OC.Cl | 4.69
O=c1[nH]cnc2scc(-c3ccc(F)cc3)c12 | 0.0739

SMILES | hERG current change (%, negative = inhibition) at 10uM [%]
c1ccc(Nc2nc3ccccc3n3nnnc23)cc1 | -4.24
Cc1ccccc1-c1nc(CN2CCCC2c2ccc(F)cc2)c(C)o1 (stereo not shown) | 19.8
Cc1ncc(C[n+]2csc(C)c2C)c(N)n1.Cl.[Cl-] | 15.6
CC(=O)CC(C)(C)n1nnc(-c2ccccc2)n1 | 6.25
CC(OC(=O)Cn1c(C(F)(F)F)nc2ccccc21)C(=O)N1CCCc2ccccc21 (stereo not shown) | -1.3
COc1ccc(S(=O)(=O)N2CCC(C(=O)NN3CCCCC3)CC2)cc1OC | 2.01
COc1ccc(Nc2ncnc3ccccc23)cc1.Cl | -2.07
COc1ccc(-c2ccc(SCC(=O)N3CCOCC3)nn2)cc1OC | -9.16
CCOc1ccccc1NC(=O)CN(c1ccc(OC)cc1OC)S(=O)(=O)c1ccccc1[N+](=O)[O-] | 18.2
COc1cc2nc(Cl)nc(NCCO)c2cc1OC | -9.56
O=[N+]([O-])c1cccc(OCC(O)CN2CCN(S(=O)(=O)c3cc(Cl)ccc3Cl)CC2)c1 (stereo not shown) | -31.3
O=C(COc1ccc(Cl)cc1)NNC(=O)c1ccccc1C(=O)O | 16.2
CCCNC(=O)NC(C(=O)OC)C12CC3CC(CC(C3)C1)C2 (stereo not shown) | -10.8
O=C(CCC1CCCN(C(=O)c2ccc3cc[nH]c3c2)C1)N1CCN(c2ccccn2)CC1 (stereo not shown) | -5.79
O=c1c2sccc2nc(SCc2cc(=O)n3ccccc3n2)n1Cc1ccccn1 | -22.3
COc1ccc(NC(=S)N(Cc2cccc(Br)c2)CC2CCC(C(=O)O)CC2)cc1 (stereo not shown) | -18.2
O=C(OC(C(=O)NCC1CCCO1)c1ccc(F)cc1)c1ccco1 (stereo not shown) | 5.64
O=C(Cc1csc(-c2cccc(Cl)c2)n1)Nc1cccc(S(=O)(=O)NC2=NCCC2)c1 | -13.7
C=CCNC(=O)C(=O)Nc1ccc2c(c1)N(S(=O)(=O)c1cccs1)CCC2 | -14.7
COc1ccc(C2c3c(nc(C)[nH]c3=O)Oc3c2c(=O)oc2ccccc32)cc1 (stereo not shown) | 13.7
CCOc1cccc(C(=O)N(Cc2ccc(F)cc2)C2CCS(=O)(=O)C2)c1 (stereo not shown) | -24.8
CCOc1ccc(NC(=O)C2CCC(CNc3c(N4CCC(C)CC4)c(=O)c3=O)CC2)cc1 (stereo not shown) | -1.24
CCOc1ccc(S(=O)(=O)N(CC)CC(=O)N2CCCC2)cc1 | 6.06
CN1CCN(NC(=O)CN(C)S(=O)(=O)c2cc(Cl)ccc2Cl)CC1 | 1.77
COc1ccccc1C(=O)Nc1ccc(C(=O)N2CCCCC2)cc1 | -9.76
CC1CCCN(S(=O)(=O)c2ccc(NC(=O)Cc3ccc(S(=O)(=O)N4CCOCC4)s3)cc2)C1 (stereo not shown) | -15
Cn1cc([N+](=O)[O-])c(C(=O)Nc2sc3c(c2C#N)CCC3)n1 | 0.703
